In PubChem BioAssay AID651742 (Broad Institute, 2012):
Hit rate of the full screen: of about 5,600 compounds, about 780 (14%) were called active. The inconclusive results got no clear call from the source; some entries with a clear call stand among them for comparison.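 Rule for the calls: active = mean signal decrease across replicates above about 35% based on untreated-well scatter, with enough replicates individually passing (limit read from the data); inconclusive = no rule stated though some were filed; inactive = the rest.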

Assay: NIH3T3 cell viability loss – cherry-pick, single point, cytotoxicity control for T. cruzi proliferation inhibitor project, confirmation (AID 651742);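 note: 0% = median of neutral control wells and 100% = median of positive control wells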
Conditions: NIH/3T3 viability, CellTiter-Glo ATP luminescence, 90 h; at 8.35 µM; stronger effect = higher value

Row | SMILES | cytotoxicity (signal decrease)
1 | CCS(=O)(=O)N1CCCCN2[C@H](C1)[C@H](c1ccc(-c3cccc(C#N)c3)cc1)[C@@H]2CO | inactive: 10.9%
2 | C[C@@H]1CN([C@@H](C)CO)S(=O)(=O)c2ccc(C3=CCCC3)cc2O[C@@H]1CN(C)Cc1cccnc1 | inconclusive: 34.1%
3 | OC[C@@H]1[C@@H](c2ccc(-c3ccc(F)cc3)cc2)[C@H]2CN(CCC(F)(F)F)CCCCN12 | active: 96.2%
4 | O=C(Nc1cc(F)ccc1F)N1CCCCN2[C@H](CO)[C@@H](c3ccc(-c4cncnc4)cc3)[C@H]2C1 | inactive: 15%
5 | O=C(Nc1ccccc1)N1CCCCN2[C@H](CO)[C@@H](c3ccc(C#Cc4ccccc4)cc3)[C@@H]2C1 | inconclusive: 35.9%
6 | C[C@H]1CN([C@@H](C)CO)S(=O)(=O)c2ccc(C#CC3CC3)cc2O[C@H]1CN(C)Cc1ccccc1F | inactive: 11.3%
7 | C[C@H](CO)N1C[C@H](C)[C@@H](CN(C)Cc2ccncc2)Oc2cc(Br)ccc2S1(=O)=O | inconclusive: 40.8%
8 | CCCC#Cc1ccc([C@H]2[C@H](CO)N3CCCCN(CC4CC4)C[C@@H]23)cc1 | inconclusive: 35.1%
9 | Cc1noc(C)c1S(=O)(=O)Nc1ccc2c(c1)C(=O)N([C@H](C)CO)C[C@@H](C)[C@H](CN(C)Cc1ccc(C(F)(F)F)cc1)OCCCC[C@@H](C)O2 | inactive: 25.1%
10 | Cc1ccccc1-c1ccc([C@@H]2[C@H]3CN(C(=O)Nc4ccc(F)cc4)CCCCN3[C@H]2CO)cc1 | inconclusive: 39.3%
11 | COc1ccc(S(=O)(=O)N2C[C@@H](O)COC[C@@H]3O[C@H](CC(=O)NCc4ccc(Cl)c(Cl)c4)CC[C@H]32)cc1 | inconclusive: 44.7%
12 | C[C@@H]1CN([C@H](C)CO)S(=O)(=O)c2ccc(-c3ccncc3)cc2O[C@H]1CN(C)Cc1ccccn1 | inconclusive: 37.9%
13 | C[C@H]1CN([C@@H](C)CO)C(=O)Cc2cc(NC(=O)Cc3ccccc3)ccc2O[C@@H]1CN(C)Cc1ccc(-c2ccccc2)cc1 | inactive: 7.97%
14 | C[C@H](CO)N1C[C@H](C)[C@@H](CN(C)C(=O)Nc2ccc(F)cc2)Oc2cc(-c3ccc(F)cc3)ccc2S1(=O)=O | active: 44.2%
15 | CN1c2ccc(-c3cccc(C#N)c3)cc2[C@@H]2[C@@H](CCN2S(=O)(=O)c2ccccc2F)[C@@H]1CO | inconclusive: 38.7%
16 | Cc1cccc(S(=O)(=O)N2C[C@@H](O)COC[C@@H]3O[C@H](CC(=O)Nc4ccc(-c5ccccc5)cc4)CC[C@H]32)c1 | inconclusive: 34.3%
17 | C[C@@H]1CN([C@@H](C)CO)S(=O)(=O)c2ccc(/C=C/c3ccccc3)cc2O[C@@H]1CN(C)C(=O)Nc1cccc(F)c1 | inconclusive: 38%
18 | C[C@H]1CN([C@@H](C)CO)S(=O)(=O)c2ccc(/C=C/c3ccccc3)cc2O[C@@H]1CN(C)C(=O)Nc1cccc(F)c1 | inconclusive: 35.3%
19 | C[C@H]1CN([C@@H](C)CO)C(=O)c2cccc(NC(=O)Nc3ccccc3)c2O[C@@H]1CN(C)Cc1ccc(C(=O)Nc2ccccc2N)cc1 | inconclusive: 34.2%
20 | C[C@@H]1CN([C@@H](C)CO)C(=O)c2cc(NS(=O)(=O)c3ccc(F)cc3)ccc2O[C@@H]1CN(C)Cc1ccc(Cl)c(Cl)c1 | inconclusive: 35.3%

Row | SMILES | cytotoxicity (signal decrease)
21 | COc1ccccc1-c1ccc2c(c1)O[C@H](CN(C)S(=O)(=O)c1ccc(C)cc1)[C@H](C)CN([C@@H](C)CO)S2(=O)=O | inconclusive: 35.1%
22 | O=C(C1CC1)N1CC[C@H]2[C@H](CO)Nc3ccc(-c4cccc(F)c4)cc3[C@H]21 | inactive: 3.75%
23 | C[C@@H]1CCCCO[C@H](CN(C)Cc2ccc(C(F)(F)F)cc2)[C@H](C)CN([C@@H](C)CO)C(=O)c2cc(NC(=O)Nc3cccc4ccccc34)ccc2O1 | inconclusive: 40.2%
24 | CO[C@@H](CN(C)S(=O)(=O)c1ccc(C)cc1)[C@@H](C)CN(Cc1ccccc1Cl)[C@H](C)CO | inconclusive: 37%
25 | O=C(c1cccnc1)N1CCCCN2[C@@H](CO)[C@H](c3ccc(C#Cc4ccccc4)cc3)[C@@H]2C1 | inconclusive: 39.3%
26 | O=C(c1cccc(F)c1)N1CCCCN2[C@H](CO)[C@H](c3ccc(-c4ccncc4)cc3)[C@H]2C1 | inactive: -11.1%
27 | Cc1ccc(S(=O)(=O)N(C)C[C@@H]2OCCCC[C@H](C)Oc3ccc(NC(=O)Nc4ccccc4)cc3C(=O)N([C@@H](C)CO)C[C@@H]2C)cc1 | inactive: -2.19%
28 | N#C[C@H]1[C@@H](c2ccc(C#CC3CC3)cc2)[C@H](CO)N1S(=O)(=O)c1ccccc1 | inconclusive: 36.3%
29 | OC[C@H]1[C@H](c2ccc(C#Cc3ccccc3)cc2)[C@H]2CN(CC3CCOCC3)CCCCN21 | active: 75.9%
30 | O=C(c1cccc(F)c1)N1CCCCN2[C@H](CO)[C@H](c3ccc(-c4cncnc4)cc3)[C@H]2C1 | inactive: 16.5%
31 | O=C(Nc1ccccc1)N1CCCCN2[C@@H](CO)[C@H](c3ccc(C#CC4CC4)cc3)[C@@H]2C1 | inconclusive: 35.8%
32 | COc1ccc(S(=O)(=O)Nc2ccc3c(c2)C(=O)N([C@@H](C)CO)C[C@@H](C)[C@H](CN(C)Cc2ccc4c(c2)OCO4)OCCCC[C@H](C)O3)cc1 | inactive: 11.3%
33 | CC(C)CC#Cc1ccc2c(c1)O[C@H](CN(C)Cc1cncnc1)[C@@H](C)CN([C@@H](C)CO)S2(=O)=O | inconclusive: 34.9%
34 | O=S(=O)(c1ccccc1)N1CC[C@@H]2[C@H]1c1cc(C#Cc3cccc(F)c3)ccc1N[C@@H]2CO | inconclusive: 35.4%
35 | CO[C@H](CN(C)S(=O)(=O)c1cccc(Cl)c1)[C@H](C)CN([C@H](C)CO)S(=O)(=O)c1cccc(Cl)c1 | inconclusive: 35.1%
36 | O=C(c1ccc(F)cc1)N1CC[C@@H]2[C@H](CO)Nc3ccc(-c4ccccc4F)cc3[C@@H]21 | inactive: 5.98%
37 | C[C@H](CO)N1C[C@H](C)[C@@H](CN(C)Cc2ccc(Oc3ccccc3)cc2)Oc2c(NC(=O)c3ccc(-c4nccs4)cc3)cccc2C1=O | inactive: -7.83%
38 | CCCC#Cc1ccc([C@H]2[C@@H](CO)N3CCCCN(Cc4ccncc4)C[C@@H]23)cc1 | inconclusive: 37.1%
39 | COc1ccc(-c2ccc([C@H]3[C@@H](CO)N4CCCCN(CC5CCOCC5)C[C@@H]34)cc2)cc1 | inconclusive: 35.5%
40 | CCCN(C)C[C@@H]1Oc2cc(C#Cc3ccc(F)cc3)ccc2S(=O)(=O)N([C@@H](C)CO)C[C@@H]1C | inconclusive: 34.5%

Row | SMILES | cytotoxicity (signal decrease)
41 | C[C@@H]1CN([C@@H](C)CO)S(=O)(=O)c2ccc(C#Cc3ccc(F)cc3)cc2O[C@@H]1CN(C)S(C)(=O)=O | active: 35.5%
42 | C[C@@H]1CN([C@H](C)CO)C(=O)Cc2cc(NC(=O)Nc3cccc4ccccc34)ccc2O[C@@H]1CN(C)Cc1ccc2c(c1)OCO2 | inconclusive: 35.5%
43 | C[C@@H]1CN([C@@H](C)CO)C(=O)c2cc(NC(=O)Nc3ccc(F)cc3)ccc2O[C@@H](C)CCCCO[C@@H]1CN(C)CC1CCCCC1 | inconclusive: 35.2%
44 | C[C@H]1CN([C@@H](C)CO)S(=O)(=O)c2ccc(C#CC3CC3)cc2O[C@@H]1CN(C)C(=O)Nc1cc(F)ccc1F | active: 39.4%
45 | CNC[C@H]1Oc2cc(C#CCC3CCCC3)ccc2S(=O)(=O)N([C@H](C)CO)C[C@H]1C | inconclusive: 38.4%
46 | O=S(=O)(c1ccccc1)N1CCCCN2[C@H](C1)[C@H](c1ccc(C#Cc3ccccc3)cc1)[C@@H]2CO | inconclusive: 40.4%
47 | C[C@@H]1CN([C@@H](C)CO)C(=O)Cc2cc(NS(=O)(=O)c3ccc(Cl)cc3)ccc2O[C@H]1CN(C)Cc1ccc(Cl)c(Cl)c1 | active: 41.5%
48 | OC[C@@H]1Nc2ccc(C#Cc3ccccc3)cc2[C@H]2[C@@H]1CCN2Cc1nccs1 | inactive: 31.4%
49 | C[C@@H]1CN([C@H](C)CO)S(=O)(=O)c2ccc(C#Cc3ccccn3)cc2O[C@H]1CN(C)Cc1cccc(F)c1 | inconclusive: 34.9%
50 | CNC[C@@H]1Oc2cc(C#CCC3CCCC3)ccc2S(=O)(=O)N([C@@H](C)CO)C[C@H]1C | inconclusive: 35.9%
51 | C[C@H]1CN([C@@H](C)CO)S(=O)(=O)c2ccc(-c3ccncc3)cc2O[C@H]1CN(C)Cc1cncnc1 | inconclusive: 41.2%
52 | CCCC#Cc1ccc([C@H]2[C@H]3CN(S(=O)(=O)Cc4ccccc4)CCCCN3[C@H]2CO)cc1 | inconclusive: 34.8%
53 | C[C@H](CO)N1C[C@H](C)[C@@H](CN(C)Cc2ccc(Oc3ccccc3)cc2)Oc2c(NC(=O)Nc3ccc4c(c3)OCO4)cccc2C1=O | inactive: -2.16%
54 | C[C@H](CO)N1C[C@H](C)[C@H](CN(C)C(=O)Nc2cccc3ccccc23)Oc2ncc(C#Cc3ccccc3)cc2C1=O | inconclusive: 34.1%
55 | CCN(C[C@@H]1N[C@@H](CO)[C@H]1c1ccc(-c2ccc(F)cc2)cc1)C(=O)CN(C)C | inconclusive: 34.4%
56 | COc1ccc(NC(=O)Nc2ccc3c(c2)C(=O)N([C@H](C)CO)C[C@@H](C)[C@H](CN(C)Cc2ccc4c(c2)OCO4)OCCCC[C@@H](C)O3)cc1 | inconclusive: 34.6%
57 | CC(=O)N1CCCCN2[C@@H](CO)[C@H](c3ccc(-c4ccc(C)cc4)cc3)[C@@H]2C1 | inconclusive: 36.8%
58 | C[C@@H]1CN([C@@H](C)CO)S(=O)(=O)c2ccc(C#Cc3ccncc3)cc2O[C@@H]1CN(C)S(=O)(=O)c1ccc(F)cc1 | active: 34.4%
59 | C/C=C/c1ccc2c(c1)O[C@@H](CN(C)Cc1ccncc1)[C@H](C)CN([C@H](C)CO)S2(=O)=O | inconclusive: 35.3%
